Experimental data reported in PubChem BioAssay AID624296 (National Center for Advancing Translational Sciences (NCATS), 2012).
Out of some 350,000 compounds screened, about 9,900 (2.8%) were called active. Inconclusive means that the source gave no clear call. Such entries were picked first, then a sample of the others. Calls come from the whole dose curve; as a rule, active = well fitted activation curve with a large enough effect; inconclusive = small, poorly fitted or top-dose-only effect; inactive = no such curve, though single readings can be large or run the other way. Potencies of inconclusive entries are left out as doubtful fits.

Experiment: A quantitative high throughput screen for small molecules that induce DNA re-replication in MCF 10a normal breast cells. Note: nearly all actives have a fitted effect of over 50% in size.
Settings: MCF 10A DNA re-replication, Hoechst nuclear intensity, 48 h; series mostly up to 46.1 µM
Potency is the fitted concentration of half-maximal effect; tags give direction and shape of the fitted curve.

| SMILES | Potency |
| --- | --- |
| COC(=O)COc1cccc2c(=O)n(CC(=O)NCc3ccccc3)ccc12 | active: 2.59 µM |
| CN1CCN(CCCNC(=O)c2ccc(/C=C3\Oc4ccccc4N(Cc4ccccc4F)C3=O)cc2)CC1 | active: 9.2 µM |
| COc1ccc(CC2C(=O)NC(C)C(=O)N(C)C3Cc4ccc(cc4)Oc4cc(ccc4O)CC(C(=O)NC(C)C(=O)NC(C)C(=O)N2C)N(C)C3=O)cc1 (centres undefined) | inconclusive [activator, full curve, poor fit] |
| CC(C)c1ccc(N2C(=O)CC(Sc3nc4ccccc4o3)C2=O)cc1 (centres undefined) | inconclusive [activator, single point] |
| N#Cc1c(NC(=O)COC(=O)C2CC3C=CC2C3)oc(-c2ccccc2)c1-c1ccccc1 (centres undefined) | active: 18.4 µM |
| O=C(CNC(=S)NC(=O)c1ccc(Cl)cc1)c1ccccc1 | inactive |
| COc1ccccc1N1CCN(C(=O)c2ccc3c(Cl)c4c(nc3c2)CCCC4)CC1 | inconclusive [activator, partial curve, poor fit] |
| Cc1[nH]n(-c2ccccc2)c(=O)c1/C=N/N(c1ccccc1)c1ccccc1 | inconclusive [activator, full curve] |
| O=C(c1ccc(-c2ccccc2)cc1)C1CCCN(Cc2ccncc2)C1 (centres undefined) | inconclusive [activator, full curve, poor fit] |
| COc1ccc(-c2csc(Nc3ccc(S(N)(=O)=O)cc3)n2)cc1OC | inconclusive [activator, single point] |
| Nc1c(C(=O)OCC2CCCO2)c2nc3ccccc3nc2n1-c1ccc2c(c1)OCCO2 (centres undefined) | inconclusive [activator, partial curve, poor fit] |
| Cc1cc(C(=O)CSc2nnnn2-c2ccc(O)cc2)c(C)n1C | inactive |
| O=C(O)C[C@H]1c2cc(C(F)(F)F)ccc2S(=O)(=O)N1C1CCCC1 | inactive |
| CCNC(=O)c1cc2c(=O)n3cccc(C)c3nc2n(CCc2ccccc2)c1=N | inconclusive [activator, partial curve, poor fit] |
| CC(C)CCn1c(COc2ccccc2)n[nH]c1=S | inactive |
| COc1ccccc1C1NC(=O)NC(C)=C1C(=O)OC1CCCC(C)C1 (centres undefined) | inconclusive [activator, partial curve, poor fit] |
| Cc1cc(C)c2cc(C(O)c3nnnn3Cc3ccccc3)c(=O)[nH]c2c1 (centres undefined) | active: 2.59 µM |
| CCn1c(C)nnc1SCC(=O)Nc1ccccc1OC | inactive |
| COc1ccc(CNC(=O)Cn2cc(C)c(=O)[nH]c2=O)cc1 | inconclusive [activator, full curve, poor fit] |
